Laboratory results: PubChem BioAssay (Tox21)
Values joined by “and” are separate entries in the source; they are usually repeats but may differ in a detail not shown here. Equal entries are not always repeated. Inconclusive results, whose numbers are uncertain, are shown with a selection of clear calls. Where a call stands in place of a potency, no number is given. For part of these data: Where the call is inconclusive, the potency comes from a doubtful curve fit. Some structures have more than one record in an assay (separate samples or runs), and their calls can disagree. Active and inactive are the calls of the source. Unless noted, the call rests on the fitted dose curve; in most records, active means well fitted curve in the direction sought with a large enough effect in the repeat runs; inconclusive means weak or mixed curves; inactive means no such curve, though single readings can be large; an effect the other way counts as inactive or inconclusive.

What was measured:
[1] = qHTS assay to identify small molecule antagonists of the estrogen related receptor signaling pathway with the pleiotropic PPARgamma coactivator (PGC) from Tox21 10K library - cell viability counter screen (AID 1224840; active means well fitted cell-killing curve with a large enough effect in the repeat runs, not every such curve was filed as active; inconclusive means weak or mixed curves, or effect the other way; inactive means no such curve, though single readings can be large or run the other way; further: nearly all actives have a fitted effect of over 40% in size; further: potency means the concentration at half of the fitted maximal effect)
In short: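 Compounds in DMSO, alongside positive and negative controls, were pinned onto PGC/ERR cells (2,000 per well). Exposure lasted 17.5 hours at 37 C, followed by a 30-minute CellTiter-Fluor incubation and fluorescence reading.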

[2] = molecular target: Nuclear receptor subfamily 1 group I member 3 (Homo sapiens) (UniProt Q14994); experiment: qHTS assay to identify small molecule agonists of the constitutive androstane receptor (CAR) signaling pathway (AID 1224839); further: nearly all actives have a fitted effect of over 15% in size; further: potency means the concentration at half of the fitted maximal effect;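 on activation: HepG2 cells stably carrying human CAR and a CYP2B6 luciferase reporter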
Chain of UniProt Q14994 (Q14994 whole entry, looked up): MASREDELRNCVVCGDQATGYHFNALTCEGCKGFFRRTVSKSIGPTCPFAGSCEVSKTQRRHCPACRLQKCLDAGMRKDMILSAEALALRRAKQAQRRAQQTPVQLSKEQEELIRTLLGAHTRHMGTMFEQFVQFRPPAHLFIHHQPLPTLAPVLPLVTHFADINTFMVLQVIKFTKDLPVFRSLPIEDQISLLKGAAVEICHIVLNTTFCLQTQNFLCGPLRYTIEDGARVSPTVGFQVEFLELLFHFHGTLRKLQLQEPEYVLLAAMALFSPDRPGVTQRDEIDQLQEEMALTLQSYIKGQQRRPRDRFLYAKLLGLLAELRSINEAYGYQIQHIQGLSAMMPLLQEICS
In short: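 Luminescent ONE-Glo read-out after 24 hr, 37 C exposure of double-stable HepG2-CYP2B6-hCAR reporter cells to a 15-point compound series, in the presence of 0.75 uM PK11195 (final).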

[3] = molecular target: Thyrotropin receptor (Homo sapiens) (UniProt P16473); experiment: qHTS assay to identify small molecule agonists of the thyroid stimulating hormone receptor (TSHR) signaling pathway (AID 1224843; calls by dose curve; further: nearly all actives have a fitted effect of over 45% in size; further: potency means the concentration at half of the fitted maximal effect); settings: TSHR-HEK293 cells, cAMP HTRF, agonist mode, 30 min; activation: at 92.4 µM (top of the series) unless noted
Chain of UniProt P16473 (P16473 whole entry, looked up): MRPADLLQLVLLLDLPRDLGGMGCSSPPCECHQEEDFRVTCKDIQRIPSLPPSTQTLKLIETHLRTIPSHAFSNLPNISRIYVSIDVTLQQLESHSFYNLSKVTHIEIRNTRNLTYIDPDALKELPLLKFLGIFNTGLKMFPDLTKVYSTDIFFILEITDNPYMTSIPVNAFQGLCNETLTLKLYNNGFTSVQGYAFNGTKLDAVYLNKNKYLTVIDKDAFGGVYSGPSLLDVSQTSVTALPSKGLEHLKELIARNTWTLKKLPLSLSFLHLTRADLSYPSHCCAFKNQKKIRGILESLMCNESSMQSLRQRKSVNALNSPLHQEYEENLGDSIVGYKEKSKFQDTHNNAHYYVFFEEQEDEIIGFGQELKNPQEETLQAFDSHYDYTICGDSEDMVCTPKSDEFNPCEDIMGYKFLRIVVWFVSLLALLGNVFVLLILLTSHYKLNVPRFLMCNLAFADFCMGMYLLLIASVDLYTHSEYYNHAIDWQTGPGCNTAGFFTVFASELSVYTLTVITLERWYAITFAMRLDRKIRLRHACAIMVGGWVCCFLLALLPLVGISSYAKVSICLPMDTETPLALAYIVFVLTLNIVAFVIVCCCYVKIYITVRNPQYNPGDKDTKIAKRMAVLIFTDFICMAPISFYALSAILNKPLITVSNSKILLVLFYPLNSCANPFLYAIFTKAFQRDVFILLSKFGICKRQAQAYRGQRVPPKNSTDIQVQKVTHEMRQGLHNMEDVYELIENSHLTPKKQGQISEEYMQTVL
In short: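 Screening of the Tox21 10K collection used HEK293 cells engineered with TSHR at 800 cells per well. After a 30-min room-temperature compound exposure, HTRF cAMP reagents were added and fluorescence recorded 1 h later.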

[4] = qHTS assay to identify small molecule agonists of the hypoxia (HIF-1) signaling pathway - cell viability counter screen (AID 1224844; calls by dose curve; further: nearly all actives have a fitted effect of over 50% in size; further: potency means the concentration at half of the fitted maximal effect)
In short: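 Luminescent ATP content (CellTiter-Glo, 30 min, room temperature) served as the viability measure in HRE-bla ME-180 cells exposed to compounds for 17 hrs in low-serum medium (0.5% dialyzed FBS).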

[5] = qHTS assay to identify small molecule antagonists of the estrogen related receptor signaling pathway with the pleiotropic PPARgamma coactivator (PGC) from Tox21 10K library (AID 1224841; call rule not given here; further: actives are mostly falling curves and most rising ones were filed inactive; nearly all actives have a fitted effect of over 50% in size)
In short: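 Compound exposure ran 18 hours at 37 C in PGC/ERR cells (2,000/well) that had first rested 6 hours in a 37 C/5% CO2 incubator. Luciferase activity was then detected with One-Glo after a 30-minute room-temperature step.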

[6] = molecular target: Nuclear receptor subfamily 1 group I member 3 (Homo sapiens) (UniProt Q14994); experiment: qHTS assay to identify small molecule antagonists of the constitutive androstane receptor (CAR) signaling pathway (AID 1224838);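 further: HepG2 cells stably expressing hCAR with CYP2B6 luciferase reporter stimulated by CITCO; nearly all actives have a fitted effect of over 40% in size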; further: potency means the concentration at half of the fitted maximal effect
In short: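 Quantitative HTS in double-stable HepG2-CYP2B6-hCAR cells. After 4 h plating, cells get compound (15 concentrations) and CITCO at 50 nM final, incubate 24 h at 37 C, then ONE-Glo luminescence is read.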

[7] = qHTS assay to identify small molecule agonists of the estrogen related receptor signaling pathway with the pleiotropic PPARgamma coactivator (PGC) from Tox21 10K library (AID 1224842); further: nearly all actives have a fitted effect of over 15% in size; further: potency means the concentration at half of the fitted maximal effect
In short: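 Luminescence from One-Glo (30 min, room temperature) measured after PGC/ERR cells had 18 h at 37 C with pinned compound (23 nL in DMSO). Cells had been seeded at 2,000 per well and pre-incubated 6 h.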
Tags describe the fitted curve by direction and shape or compound fluorescence and quenching.

CC(=O)OCC(C)OC(C)=O (centres undefined)
Potency [1]: inactive

CCc1ccc(C(c2ccc(CC)cc2)C(Cl)Cl)cc1
Potency [2]: inconclusive: 30.6 µM [activator, partial curve] | Potency [3]: inconclusive: 62.1 µM [inhibitor] | activation [3]: inconclusive: -24%

COc1cc(C(=O)NS(=O)(=O)c2ccccc2C)ccc1Cc1cn(C)c2ccc(NC(=O)OC3CCCC3)cc12
Potency [2]: inconclusive: 16.8 µM [activator, partial curve, poor fit] | Potency [4]: inconclusive: 10.7 µM [cytotoxic, single point]

c1ccc2sc(SN(C3CCCCC3)C3CCCCC3)nc2c1
Potency [2]: inconclusive: 60.4 µM [activator, partial curve] | Potency [4]: inconclusive: 60.9 µM [cytotoxic, partial curve, poor fit]

COC(=O)c1c(C)cc(O)c(C)c1O
Potency [2]: inconclusive: 54.5 µM [activator, partial curve]

Cc1ccccc1S(N)(=O)=O
Potency [1]: inactive | Potency [3]: inactive

CO/N=C(/C(=O)N[C@@H]1C(=O)N2C(C(=O)O)=C(COC(N)=O)CS[C@H]12)c1ccco1
Potency [2]: inactive

CCCCCCCC/C=C\CCCCCCCC(=O)OCC
Potency [1]: inactive

CCOCC(=O)O
Potency [1]: inactive

CSc1cnc(C)cn1
Potency [1]: inactive

Cc1c(C)c2c(c(C)c1OC(=O)CCC(=O)O)CC[C@@](C)(CCC[C@H](C)CCC[C@H](C)CCCC(C)C)O2
Potency [2]: inactive

CCCCCCCCOS(=O)(=O)O
Potency [1]: inactive | Potency [4]: inactive

Cc1cc(C)c(N)cc1C
Potency [1]: inactive

OC/C(Br)=C(\Br)CO
Potency [2]: inactive

CC(C)(C)CC(C)(C)c1ccc(O)c(-n2nc3ccccc3n2)c1
Potency [2]: inconclusive: 29.8 µM [activator, partial curve] | Potency [3]: active: 27.7 µM and active: 15.4 µM and inconclusive: 18.8 µM [activator, partial curve] | Potency [4]: inconclusive: 44.3 µM [cytotoxic, partial curve]

c1ccc(C(O[C@@H]2CCCN(CCc3ccc4c(c3)OCO4)C2)c2ccccc2)cc1
Potency [1]: inconclusive: 68.6 µM [cytotoxic, single point] | activation [3]: inconclusive: -23.4%

CCOC(=O)Cn1cccc1-c1nc(-c2ccc(OC)cc2)c(-c2ccc(OC)cc2)s1
Potency [2]: inconclusive: 15 µM [activator, partial curve]

C1CCCC1
Potency [5]: inactive

CCCCCCCCCC(=O)OCC
Potency [6]: inconclusive: 30.6 µM [inhibitor, partial curve, poor fit] | Potency [3]: inactive

CCOC(=O)c1ccc(O)c(O)c1
Potency [2]: inconclusive: 13.3 µM [activator, single point] | Potency [4]: inconclusive: 19 µM [rising, partial curve, poor fit]

CN=C(N)NC(=O)Nc1c(C)cccc1C
Potency [1]: inactive

CN(C)c1ccc(C2(c3ccc(N(C)C)cc3)OC(=O)c3cc(N(C)C)ccc32)cc1
Potency [1]: inactive

CCC(=O)OCc1ccccc1
Potency [1]: inactive

COc1c(Cl)c(Cl)c(Cl)c(Cl)c1Cl
Potency [2]: inconclusive: 68.9 µM [activator, partial curve, poor fit] and inconclusive: 48.6 µM [activator, partial curve] | Potency [4]: inconclusive: 43.8 µM [rising, partial curve, poor fit]

CN1CCCN=C1COC(=O)C(O)(c1ccccc1)C1CCCCC1 (centres undefined)
Potency [2]: inactive | activation [3]: inconclusive: -16.4% [at 42.5 µM]

Clc1cccc(Cl)c1NC1=NCCN1
Potency [6]: inconclusive: 2.98 µM [inhibitor, single point] | Potency [4]: inconclusive: 0.0078 µM [cytotoxic, full curve]

CCCOC(=O)NCCCN(C)C
Potency [2]: inactive | Potency [4]: inactive

C=C(C)[C@@H]1CCC2=CCC[C@@H](C)[C@]2(C)C1
Potency [6]: inconclusive: 48.6 µM [inhibitor, partial curve] | Potency [5]: inactive | Potency [3]: inconclusive: 61.1 µM [activator, single point]

NCCc1cnc[nH]1
Potency [6]: inactive | Potency [3]: inactive

CN(C)C(=O)Oc1ccc[n+](C)c1
Potency [2]: inactive

Brc1cc(Br)c(Oc2cc(Br)c(Br)cc2Br)cc1Br
Potency [1]: inactive | Potency [4]: active: 21.3 µM

Nc1nc(N)nc(-c2ccccc2)n1
Potency [2]: inconclusive: 60.6 µM [activator, single point] | Potency [1]: inactive

CC1CCC(C(C)CS)CC1S (centres undefined)
Potency [7]: inconclusive: 27.3 µM [activator, single point]

COc1ncnc(NS(=O)(=O)c2ccc(N)cc2)c1OC
Potency [7]: inactive
